According to paper PMC4336329 (PLoS ONE, 2015):
About 14,000 (4.5%) of roughly 310,000 compounds showed an effect of 50% or more. Effects have a minus sign here. This is one part of the list.

Molecular target: human ether-à-go-go-related gene (hERG) potassium channel (human, UniProt Q12809)
Assay: primary screen, population patch clamp on CHO cells stably expressing hERG
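Further: peak tail current of the secondary pulse compared with the same well before compound.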

human ether-à-go-go-related gene (hERG) potassium channel, sequence (Q12809 whole entry, looked up): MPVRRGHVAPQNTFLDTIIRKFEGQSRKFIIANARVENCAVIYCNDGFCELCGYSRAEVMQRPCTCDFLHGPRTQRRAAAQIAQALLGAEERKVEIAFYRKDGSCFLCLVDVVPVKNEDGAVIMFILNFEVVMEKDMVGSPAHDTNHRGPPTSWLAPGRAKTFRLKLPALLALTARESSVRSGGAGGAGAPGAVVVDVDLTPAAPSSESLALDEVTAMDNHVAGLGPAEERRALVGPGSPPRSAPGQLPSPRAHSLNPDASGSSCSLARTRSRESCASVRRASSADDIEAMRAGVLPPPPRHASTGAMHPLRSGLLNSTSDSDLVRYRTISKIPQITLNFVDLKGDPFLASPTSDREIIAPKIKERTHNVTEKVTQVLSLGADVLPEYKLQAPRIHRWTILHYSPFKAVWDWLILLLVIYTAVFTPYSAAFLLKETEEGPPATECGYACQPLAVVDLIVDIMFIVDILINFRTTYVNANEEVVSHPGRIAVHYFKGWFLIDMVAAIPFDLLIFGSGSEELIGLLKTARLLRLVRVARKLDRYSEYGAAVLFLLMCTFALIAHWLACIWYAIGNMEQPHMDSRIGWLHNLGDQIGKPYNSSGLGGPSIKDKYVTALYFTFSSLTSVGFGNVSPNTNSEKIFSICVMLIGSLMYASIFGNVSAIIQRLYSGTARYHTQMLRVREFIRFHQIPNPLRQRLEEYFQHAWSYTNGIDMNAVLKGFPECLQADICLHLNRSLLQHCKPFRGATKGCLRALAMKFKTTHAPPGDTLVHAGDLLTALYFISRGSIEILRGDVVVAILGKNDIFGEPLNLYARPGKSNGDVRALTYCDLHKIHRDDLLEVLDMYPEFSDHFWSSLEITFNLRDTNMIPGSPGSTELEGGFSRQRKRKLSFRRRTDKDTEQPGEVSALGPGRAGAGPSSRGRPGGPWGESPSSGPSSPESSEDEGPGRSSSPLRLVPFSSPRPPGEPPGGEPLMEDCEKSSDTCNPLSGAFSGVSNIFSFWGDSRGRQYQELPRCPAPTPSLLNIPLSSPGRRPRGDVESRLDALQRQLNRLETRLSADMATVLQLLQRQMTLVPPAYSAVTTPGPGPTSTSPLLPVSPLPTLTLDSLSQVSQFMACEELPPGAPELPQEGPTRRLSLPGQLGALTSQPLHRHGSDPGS

| SMILES | hERG current change (%, negative = inhibition) at 10uM |
| --- | --- |
| c1ccc(-c2onc3c2CCCC3)cc1 | -8.78% |
| Cc1oc(-c2ccccc2Cl)nc1CS(=O)CC(=O)NC1CC1 (centres unmarked) | 7.58% |
| O=C(O)c1ccc(Cl)c(S(=O)(=O)N(Cc2ccccc2)c2ccccc2Cl)c1 | 15.4% |
| CCn1c(=O)cc(SCC(=O)NCc2ccco2)c2ccccc21 | -22.3% |
| COc1ccc(C(C)C)cc1S(=O)(=O)Nc1ccccn1 | -5.43% |
| COC(=O)CNC(=O)C1Nc2ccc(OC(F)(F)F)cc2C2C=CCC12 (centres unmarked) | -3.38% |
| CN(C)C1=NC[C@H](Cc2ccccc2)N1CCCC1CCCC1 | -71.2% |
| CC(C)(C)[C@@H]1C=C(C(=O)O)O[C@H](OCCCCO)C1 | 10.8% |
| COc1cccc(C2CC(c3ccccc3Cl)n3nnnc3N2)c1 (centres unmarked) | -12.1% |
| O=C(Nc1ccc(S(=O)(=O)N2CCCCC2)cc1)c1ccc(=O)[nH]c1 | 7.49% |
| O=C(O)/C=C/c1ccc(S(=O)(=O)NCc2ccco2)cc1 | 6.64% |
| Cc1ccc(C(C)C)c(OCCNCc2ccccc2)c1.O=C(O)C(=O)O | 19.2% |
| COCCNC(=S)N1CCN(c2nc3ccccc3s2)CC1 | 1.16% |
| O=C(O)c1cc2cc(OCc3ccccc3)ccc2[nH]1 | 7.37% |
| CN1C(=O)C(=Cc2cccnc2)C(=O)N(C)C1=O | 9.85% |
| NNC(=O)c1ccc(COc2ccc3ccccc3c2)cc1 | 8% |
| CC(=O)c1cn(Cc2ccc(C#N)cc2)c2ccccc12 | -19.9% |
| N#CC1(NC(=O)CSc2nnc(-c3ccccc3F)n2N)CCCCC1 | 1.29% |
| COC(=O)c1sccc1NC(=O)CSc1ccccc1NS(=O)(=O)c1ccccc1Cl | 8.23% |
| CCc1nc2n(n1)C(O)c1cc([N+](=O)[O-])ccc1S2 (centres unmarked) | -5.21% |
| Cc1ccnc(NS(=O)(=O)c2ccc(NC(=O)c3ccc([N+](=O)[O-])s3)cc2)n1 | -7.64% |
| CCOc1ccccc1C1C(C(N)=O)=C(C)Nc2nc(-c3ccc(OC)cc3)nn21 (centres unmarked) | 0.518% |
| Cc1ccc2nc(C)c(C(=O)N/N=C/c3cccs3)cc2c1 | -8.89% |

| SMILES | hERG current change (%, negative = inhibition) at 10uM |
| --- | --- |
| CN(C)CCc1nc2ccccc2c(=O)n1-c1ccccc1.Cl | -12.6% |
| COc1ccc2c(C(F)(F)F)cc(=O)oc2c1C | 3.45% |
| CN(C)c1ncnc2c1ncn2C1OC(CO)C(O)C1O (centres unmarked) | 13.9% |
| COc1cc2nc(N(CCCN(C)C)C(=O)c3ccc(S(=O)(=O)N(C)C4CCCCC4)cc3)sc2cc1OC.Cl | -51.6% |
| COc1cccc(C(=O)Nc2ccccc2NC(=O)c2cccc(OC)c2)c1 | -9.29% |
| COC(=O)c1c(C(=O)OC)c2n(c1C)CCS2 | 3.54% |
| C/C(Cn1cnc([N+](=O)[O-])n1)=N\NC(=O)c1ccccc1 | 11.6% |
| O=C(/C(=C(/[O-])c1ccccc1)[n+]1ccccc1)c1ccc([N+](=O)[O-])cc1 | 6.47% |
| Cc1ccc(S(=O)(=O)NCCC(=O)NCC(c2cccs2)N(C)C)cc1C (centres unmarked) | 7.24% |
| COc1ccc(-n2nc(C(=O)N3CCC(C#N)CC3)c3c4ccccc4n(C)c3c2=O)cc1 | -55.5% |
| O=C(CN1CCN(C(=O)c2ccco2)CC1)NCc1ccc(Cl)cc1 | -64.4% |
| O=C(NCc1cccnc1)c1cnn2ccccc12 | 11.5% |
| CSc1nc2sc3c(c2c(=O)[nH]1)CCc1ccccc1-3 | -1.75% |
| CCOc1ccc(C2c3[nH]c4ccccc4c3C[C@H]3C(=O)N(C4CC4)CC(=O)N23)cc1OC (some centres unmarked) | -15.2% |
| O=C1COc2ccc(C(=O)COC(=O)c3ccco3)cc2N1 | 3.46% |
| COc1cccc(=O)c2c(C)n(-c3ccc(C(=O)O)cc3)c(C)c12 | 6.33% |
| Cc1cc(=O)oc2cc(OCCSCCN3CCCCC3)ccc12 | -16.5% |
| COC(=O)c1ccc(NC(=O)CSCc2ccc(C)cc2)cc1 | -3.62% |
| COc1ccc(CCNC(=O)C(C)Sc2ccc(C)cc2)cc1OC (centres unmarked) | -9.5% |
| CC1CCCN(C2=C(Cl)C(=O)N(c3cccc(Cl)c3)C2=O)C1 (centres unmarked) | -27.4% |
| CN(/N=C/c1ccc(-c2ccc([N+](=O)[O-])cc2)o1)c1ccccc1 | 9.11% |
| CCn1c2ccccc2c2cc(NC(=O)CSc3nnc(-c4cccc(F)c4)o3)ccc21 | -0.775% |
| O=C(CSc1ncc(-c2ccccc2)n1CC1CCCO1)N1CCCCC1 (centres unmarked) | 10.1% |

| SMILES | hERG current change (%, negative = inhibition) at 10uM |
| --- | --- |
| CN(C)S(=O)(=O)c1ccc(S(=O)(=O)N(CC(=O)Nc2ccccc2)Cc2ccco2)cc1 | 10.6% |
| CCc1cc2c3c([nH]c2cc1S(=O)(=O)N1CCC2(CC1)OCCO2)CCCC3=O | 16.8% |
| COc1ccccc1-c1nn(Cc2ccccc2)cc1C(=O)NCC(c1ccco1)N1CCCC1 (centres unmarked) | -64% |
| Cc1onc(-c2ccccc2)c1C(=O)OCC(=O)Nc1ccc(C#N)cc1 | -27.7% |
| O=C(CC1(O)C(=O)N(CCc2ccccc2)c2ccccc21)c1ccccn1 (centres unmarked) | 13.5% |
| Cc1cc(C(=O)Cn2cnc3cc([N+](=O)[O-])ccc3c2=O)c(C)n1CC1CCCO1 (centres unmarked) | -17.7% |
| COC(=O)c1ccc(CN(c2ccc(C)cc2)S(=O)(=O)c2ccc3c(c2)OCCO3)o1 | 8.39% |
| COCCN(C(=O)CSc1n[nH]c(-c2ccccc2)n1)c1c(N)n(CC(C)C)c(=O)[nH]c1=O | 22.6% |
| COc1ccc(C2(C)NC(=O)NC2=O)cc1OC (centres unmarked) | 10.3% |
| CC1=CC(=O)C=C(C)C1=NOc1ccccc1[N+](=O)[O-] | 12.8% |
| CC(Nc1cc(N2CCN(S(=O)(=O)N(C)C)CC2)ccc1[N+](=O)[O-])c1ccccc1 (centres unmarked) | 7.88% |
| CC1CCCCN1S(=O)(=O)c1ccc(NC(=O)c2ccco2)cc1 (centres unmarked) | -18% |
| COC(=O)c1sccc1N/N=C/c1cccc(OC)c1O | 5.91% |
| CCOC(=O)c1ccccc1NC(=O)COC(=O)C1CC(=O)N(c2ccc3c(c2)OCCO3)C1 (centres unmarked) | 38.8% |
| COc1ccc(C(C)C)cc1S(=O)(=O)Nc1ccncc1 | 15.1% |
| CC(=O)Nc1ccc2oc(C)nc2c1 | 24.6% |
| Cc1ccc(-c2nc3ccccc3[nH]2)cc1N | -1.81% |
| COCCN(CCOC)S(=O)(=O)c1ccc(C(=O)Nc2nc3c(s2)CCc2ccccc2-3)cc1 | 11.9% |
| Nc1ncnc2nc[nH]c12.O=S(=O)(O)O | 7.63% |
| Cc1cc(C(=O)COC(=O)c2cccc(O)c2)c(C)n1C1CC1 | 6.32% |
| COC(=O)c1nc(-c2ccccc2)oc1N(C)C | 2.84% |
| CC1(c2ccccc2)NC(=O)N(CC(=O)NCC2CCCO2)C1=O (centres unmarked) | -0.048% |
| CCc1nnc(NC(=O)CN2CCN(Cc3ccccc3C)CC2)s1 | 13.3% |

| SMILES | hERG current change (%, negative = inhibition) at 10uM |
| --- | --- |
| Cc1cc(NC(=O)c2cccs2)n(-c2nc3ccccc3[nH]2)n1 | 20.6% |
| COc1ccc(OC(=O)N(C)C)c(CN(C)C)c1.Cl | 21.1% |
| CCOc1ccccc1COC(=O)c1cccc(-n2cnnn2)c1 | -4.28% |
| Cc1ccc(NC(=O)COC(=O)CCC(=O)c2ccc(Cl)cc2)cc1S(=O)(=O)N(C)C | -1.5% |
| COc1cccc(Nc2nc3ccccc3nc2NS(=O)(=O)c2cccs2)c1 | 13.5% |
| CC(=O)NC(=S)Nc1cccc2c(C)cc(C)nc12 | -0.832% |
| Cc1ccc(-c2cc(-c3ccccc3)nc(NN)n2)cc1 | 8.23% |
| COc1ccc(-c2ccc3oc(-c4ccc(OC)cc4)c(C#CCO)c3c2)cc1 | 15.8% |
| COc1ccc(/C=C/C(=O)Nc2cc(C)nn2-c2nc3ccccc3[nH]2)cc1 | 7.01% |
| O=c1ccc(-c2nc3ccccc3n2Cc2ccc(Cl)cc2)c[nH]1 | -76% |
| O=C(COC(=O)C1CCN(c2ccc(C(F)(F)F)cn2)CC1)Nc1ccc(Cl)cn1 | 1.21% |
| CCOC(=O)C1CCN(C(=O)c2ccccc2NC(=O)c2ccc(Br)cc2)CC1 | -16.7% |
| Nc1ccc2c(c1)C(=O)N(CCCC(=O)O)C2=O | 2.02% |
| Cc1ccc(N2CCN(C(=O)NC3CCCCC3)CC2C)cc1 (centres unmarked) | 4.09% |
| O=C1CC2C(=O)NCCN2C(=NC(=O)c2ccccc2)N1 (centres unmarked) | 22.9% |
| C/C(=N\NP(=S)(c1ccccc1)c1ccccc1)c1ccc(O)cc1O | 27.2% |
| CCN1CCN(c2ccc(S(=O)(=O)N3CCCCC3)cc2NC(=O)COc2ccc(F)cc2Cl)CC1 | -65.1% |
| COc1cccc(CNc2ccc(F)c(Cl)c2)c1O | -26.5% |
| CCOC(=O)c1c(-c2ccccc2)oc2cc(Br)c(O)c(C=O)c12 | 16.6% |
| COc1ccc(/C=N/n2cnnc2SCc2ccc(OC)cc2)cc1 | 5.8% |
